# According to paper PMC4336329 (PLoS ONE, 2015):
# The campaign covered roughly 310,000 compounds. About 14,000 (4.5%) showed an effect of 50% or more. The effect is printed as a negative number. The list shows a part of the results.
# Molecular target: human ether-à-go-go-related gene (hERG) potassium channel (human, UniProt Q12809)
# Assay: primary screen, population patch clamp on CHO cells stably expressing hERG
# 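Note: peak tail current of the secondary pulse compared with the same well before compound.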
# Sequence of human ether-à-go-go-related gene (hERG) potassium channel (Q12809 whole entry, looked up): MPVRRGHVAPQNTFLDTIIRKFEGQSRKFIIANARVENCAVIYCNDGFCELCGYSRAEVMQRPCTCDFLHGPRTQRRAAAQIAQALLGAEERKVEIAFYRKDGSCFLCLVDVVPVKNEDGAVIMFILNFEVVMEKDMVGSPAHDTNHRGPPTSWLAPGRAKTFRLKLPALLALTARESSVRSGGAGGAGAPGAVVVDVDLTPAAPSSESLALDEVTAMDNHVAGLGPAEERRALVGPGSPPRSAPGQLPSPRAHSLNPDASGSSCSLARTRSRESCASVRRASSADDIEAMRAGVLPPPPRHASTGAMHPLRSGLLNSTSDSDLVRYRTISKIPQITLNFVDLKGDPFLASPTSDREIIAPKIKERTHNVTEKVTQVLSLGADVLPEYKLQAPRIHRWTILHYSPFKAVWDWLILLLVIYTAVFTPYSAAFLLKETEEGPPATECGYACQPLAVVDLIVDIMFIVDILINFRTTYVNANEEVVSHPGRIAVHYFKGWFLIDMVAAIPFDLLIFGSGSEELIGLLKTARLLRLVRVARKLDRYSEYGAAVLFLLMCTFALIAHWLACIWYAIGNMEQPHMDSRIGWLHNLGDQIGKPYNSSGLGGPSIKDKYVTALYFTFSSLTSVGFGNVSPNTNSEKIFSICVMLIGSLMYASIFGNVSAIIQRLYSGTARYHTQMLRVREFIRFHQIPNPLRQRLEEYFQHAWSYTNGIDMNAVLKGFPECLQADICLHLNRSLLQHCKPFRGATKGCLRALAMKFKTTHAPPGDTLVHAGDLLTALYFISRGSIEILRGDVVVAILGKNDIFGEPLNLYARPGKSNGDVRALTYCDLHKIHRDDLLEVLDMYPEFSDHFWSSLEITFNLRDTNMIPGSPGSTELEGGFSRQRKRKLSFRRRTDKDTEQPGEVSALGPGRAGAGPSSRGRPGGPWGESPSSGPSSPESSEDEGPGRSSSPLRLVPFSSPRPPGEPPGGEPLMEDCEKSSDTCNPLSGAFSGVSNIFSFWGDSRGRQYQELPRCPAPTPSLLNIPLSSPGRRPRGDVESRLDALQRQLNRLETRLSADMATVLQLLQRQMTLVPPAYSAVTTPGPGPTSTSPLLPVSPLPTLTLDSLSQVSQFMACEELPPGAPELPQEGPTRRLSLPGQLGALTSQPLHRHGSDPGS
row,SMILES,"hERG current change (%, negative = inhibition) at 10uM [%]"
1,COc1ccccc1CN1C[C@@H]2C[C@@H](c3ccc(C)cc3)N3CCC[C@@]23C1=O,-43.6
2,O=C(Cc1ccc(Cl)cc1)Nc1ncccn1,11.1
3,C=CCN1C(=O)CN=C1Nc1cccc(C)c1.Cl,10.9
4,C=CCn1c(SCC(=O)Nc2ccc(F)cc2)nnc1-c1cnccn1,-58.9
5,O=C(CCCc1ccccc1)NCc1ccccc1,15
6,O=C(NCCc1ccccc1)C(=O)Nc1ccc([N+](=O)[O-])cc1,-2.37
7,CCOC(=O)C1=C(O)/C(=C\c2ccc(CNS(=O)(=O)c3ccc(Br)cc3)o2)N=C1C,15.7
8,CCC(c1nnc(SCC(=O)NCC2CCCO2)n1Cc1ccccc1)N(C)C (stereo not drawn),-4.58
9,COc1ccc(N2CCN(CC(=O)NC(=O)NC(C)(C)C)CC2)cc1,15.6
10,COc1ccccc1/C=C1\CCC(C2CCCC2)C1=O (stereo not drawn),5.36
11,O=C(NC1CC2CCCC(C1)N2Cc1cccs1)c1ccc([N+](=O)[O-])cc1 (stereo not drawn),-84.3
12,N#Cc1ccc(NC(=O)CCc2ccc(S(=O)(=O)N3CCOCC3)cc2)cc1,-51.5
13,O=C(CCC(=O)Nc1ccccc1Cl)NNS(=O)(=O)c1ccc(Cl)cc1,3.75
14,COc1ccccc1CN1CCNC(=O)C1CC(=O)NC1Cc2ccccc2C1 (stereo not drawn),-4.81
15,O=C(/C=C/NNC(=O)c1ccc(Br)cc1)c1ccccc1,8.51
16,Cc1[nH]c(-c2ccc(F)cc2)cc1C(=O)N1CCN(c2ccccc2)CC1,-58.8
17,OC(COC(c1ccc(Cl)cc1)c1ccc(Cl)cc1)CN1CCCC1 (stereo not drawn),-77.4
18,COc1ccccc1C(=O)NC(=O)OCCn1c(C)cnc1[N+](=O)[O-],-7.81
19,CC1(NC(=O)/C=C/c2nc3ccccc3s2)CCS(=O)(=O)C1 (stereo not drawn),3.96

row,SMILES,"hERG current change (%, negative = inhibition) at 10uM [%]"
1,CS(=O)(=O)N1CCN(Cc2cc(=O)n3ccsc3n2)CC1,19.1
2,O=C(NN=C(Cc1ccccc1)Cc1ccccc1)c1ccccc1O,6.32
3,C=CCNc1nc(NC(C)(C)CO)nc(OCC)n1,6.88
4,CCN1C(=O)C(CC(=O)Nc2ccc(OC)cc2)N(CCc2ccccc2)C1=S (stereo not drawn),-1.28
5,CC(C)C(c1nnnn1C1CCCCC1)N1CCN(c2ncccn2)CC1 (stereo not drawn),-3.13
6,CCOC(=O)C1=C(Cc2ccc(C)cc2)C(=O)c2ccccc2C1=O,12.4
7,COc1ccc2c(c1)N(C)C(=O)CC(c1ccccc1)=N2,-4.57
8,CCOC(=O)c1c(NC(=O)C(c2ccccc2)c2ccccc2)sc2c1C1CCN2CC1.Cl,5.02
9,CC(Sc1nnc(-c2ccncc2)n1C)C(=O)Nc1nccs1 (stereo not drawn),3.74
10,COc1cc(NC(=O)c2ccccc2F)ccc1NC(=O)c1cc2ccccc2o1,15.3
11,CCCN(CC#CC(O)(c1ccccc1)c1cccnc1)CCC (stereo not drawn),-37.3
12,c1cc(CSc2nnc(-c3ccc4c(c3)OCO4)o2)ccn1,-16.4
13,CC(C)c1ccc(NC(=O)c2cc(S(=O)(=O)N3CCCCC3)c[nH]2)cc1,4.26
14,Cn1c(=O)c2[nH]c(-c3ccccc3)c(O)c2n(C)c1=O,11.8
15,Cn1ccsc1=NC(=O)c1ccc(S(C)(=O)=O)cc1,19.8
16,CCN(CC)CCCNC(=O)c1ccc2c(=O)n(Cc3ccc4c(c3)OCO4)c(=S)[nH]c2c1,-38.9
17,CC1(C)C2([N+](=O)[O-])CN3CC1([N+](=O)[O-])CN(C2)C3c1ccc(O)c(O)c1 (stereo not drawn),12.2
18,CSCCC(C(=O)N(C)CC(=O)Nc1cccc(F)c1)N1C(=O)c2ccccc2C1=O (stereo not drawn),-10.8
19,O=C1CCC(=O)O1,14

row,SMILES,"hERG current change (%, negative = inhibition) at 10uM [%]"
1,COC(=O)c1cc(C(=O)OC)cc(S(=O)(=O)Nc2ccc(Cl)c(N)c2)c1,13.5
2,Cc1cc(O)c(CN2CC=C(c3ccccc3)CC2)cc1C(C)C,-14.1
3,Cc1ccc(NC(=O)CN2C(=O)NC3(CCCC3)C2=O)c(Cl)c1,4.78
4,CC(C)(C)c1oc(C(=O)O)cc1CN1CCOCC1.Cl,6.55
5,CCOC(=O)[C@H]1[C@H]2COc3ccccc3[C@@H]2N2C(=O)c3cc(Cl)ccc3NC(=O)[C@@]12C,-4.58
6,CC(OC(=O)c1ccccc1NCc1ccco1)C(=O)Nc1ncc(Cl)cc1Cl (stereo not drawn),2.95
7,COc1cc(NC(=O)c2ccnc(N)c2)cc(C(=O)Nc2cccc(C(F)(F)F)c2)c1,-31.3
8,CC(C)CNS(=O)(=O)c1ccc(CCC(=O)NCC2CCCO2)cc1 (stereo not drawn),6.44
9,CC(CC(=O)N1CCN(S(=O)(=O)c2ccc(Cl)cc2)CC1)n1cncn1 (stereo not drawn),-3.5
10,CN(C)c1ccc(C(=O)C(O)c2ccc(C(C)(C)C)cc2)cc1 (stereo not drawn),5.75
11,CCOCCCNC(=S)N1CCC(NC(=O)C23CC4CC(CC(C4)C2)C3)CC1,-2.22
12,CCC1CCCCN1C(=O)COC(=O)c1cc(Br)ccc1Cl (stereo not drawn),-7.89
13,O=S(=O)(/N=C(/Nc1cccc2ccccc12)c1ccccc1)c1ccccc1,-7.72
14,Cc1ccc(N(CC(=O)NCc2ccc3c(c2)OCO3)S(C)(=O)=O)cc1,-2.81
15,CCCCNS(=O)(=O)c1ccc(OC)c(C)c1,10.8
16,Cc1ccc(CN(Cc2ccc(C)o2)C(=S)NCC(=O)O)cc1,3.93
17,Cn1c(SCC(=O)Nc2ccccc2)nc2c([nH]c3ccccc32)c1=O,15.6
18,Cc1onc(-c2c(Cl)cccc2Cl)c1C(N)=S,12.8
19,NNC(=O)C1CCCN1S(=O)(=O)c1ccc(Cl)cc1 (stereo not drawn),-4.92
